# Experimental data taken from publication PMC7819943, “Rice protein-binding microarrays: a tool to detect cis-acting elements near promoter regions in rice”.
# The list shows a part of the results.
# Target: T1, OsWOX13 (Oryza sativa, UniProt Q5QMM3 1-267)
# T1 sequence: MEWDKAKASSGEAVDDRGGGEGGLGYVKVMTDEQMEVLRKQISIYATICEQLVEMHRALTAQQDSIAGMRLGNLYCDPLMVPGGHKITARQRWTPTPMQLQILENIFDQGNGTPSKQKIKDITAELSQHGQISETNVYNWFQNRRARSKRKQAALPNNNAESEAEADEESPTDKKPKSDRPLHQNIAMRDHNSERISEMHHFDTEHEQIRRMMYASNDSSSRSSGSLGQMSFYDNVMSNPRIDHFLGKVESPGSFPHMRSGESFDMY
# Test: protein-binding microarray (RPBM); PBS, 2% BSA, 51.3 ng/ul salmon testes DNA, 50 uM zinc acetate, 200 nM TF, 25 C, 1 h; high values mean tight binding
# Conditions: protein: recombinant; tags: N-terminal polyhistidine and DsRed monomer fusion (pET32a); label: CyDye5-dUTP incorporated in the synthesized complementary strand; 3' TTTTT single-stranded linker to array surface; dsDNA, one strand shown
# Method in brief: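 Transcription factors were made in E. coli BL21-CodonPlus as N-terminal fusions to a polyhistidine tag and DsRed, then purified on Ni–NTA. After primer extension with Cy5-dUTP and blocking with 2% BSA, a custom Agilent array was exposed for 1 h at 25 °C to 200 nM protein in PBS, 2% BSA, salmon testes DNA and 50 µM zinc acetate. Washed arrays were scanned on an Axon 4000B, and the binding signal is per-feature fluorescence intensity in arbitrary units.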
row,Sequence,binding signal
1,AGGAGAAACAATTTGCAATCATCACATTGTTTAAAGAGATCGGAGTCACCTAGTGCAG,5330 fluorescence intensity (a.u.)
2,CAAATTTAATCAATACATAAGAAATCCTGCTAAAATTTTGCGGAGTCACCTAGTGCAG,7580 fluorescence intensity (a.u.)
3,CCCTAATTTGTTAATCTCGGGGTAGGAAAACCAAACAAACCGGAGTCACCTAGTGCAG,17900 fluorescence intensity (a.u.)
4,AGAGTTAATTGGATCGATGCCACTACAAATATACCATTTTCGGAGTCACCTAGTGCAG,20100 fluorescence intensity (a.u.)
5,CATCAATTAATTGACATGATACTATCTACCTTGCGTGTCGCGGAGTCACCTAGTGCAG,65000 fluorescence intensity (a.u.)
6,GTCAATCATGGGATATTACTGTACTACCTCCGTCTCAGAACGGAGTCACCTAGTGCAG,8920 fluorescence intensity (a.u.)
7,CGACAAATTAAGCTTTTATAAACTCTGCCTTTGATCCTTGCGGAGTCACCTAGTGCAG,11300 fluorescence intensity (a.u.)
8,AGCAGCATAAATGCAATTAAATTTGTAGCAATCGAACATGCGGAGTCACCTAGTGCAG,4680 fluorescence intensity (a.u.)
9,TGGGATCAGGAGTCTGCTGATTGGATTGGGCTGCGGACCTCGGAGTCACCTAGTGCAG,14000 fluorescence intensity (a.u.)
10,ACCAAGCAATCATATATATGTCCATCATGCATGCCTAACACGGAGTCACCTAGTGCAG,7750 fluorescence intensity (a.u.)
11,CATAATTGGTAAATTTGCGGGTTCAATTCCTGCTGGATGCCGGAGTCACCTAGTGCAG,59500 fluorescence intensity (a.u.)
12,CCCTGATGAGGCCAGTTAGCACGGAGAGCAGTGCTAGCTACGGAGTCACCTAGTGCAG,7920 fluorescence intensity (a.u.)
13,ATATATATATATATATATATATATATATAGAGCGCGCACTCGGAGTCACCTAGTGCAG,44000 fluorescence intensity (a.u.)
14,ATCATCATCGTCATCACCGCGCATCCCCATAGTCCTCAACCGGAGTCACCTAGTGCAG,3310 fluorescence intensity (a.u.)
15,GCCATAATTAGCTCCCTCTCATGCCCTCTCCAACCTCCACCGGAGTCACCTAGTGCAG,29600 fluorescence intensity (a.u.)
16,GCAGCAAATTGATTGAAACAACCCTTAACCGGTGAGTGCTCGGAGTCACCTAGTGCAG,49800 fluorescence intensity (a.u.)
17,ATGCCTCTAATTTCATGTTTAATAATCTTGTAATACATATCGGAGTCACCTAGTGCAG,4140 fluorescence intensity (a.u.)
18,AATGATTTTCACATAAACTAGTTCAAGTTCTGTGAAGTTACGGAGTCACCTAGTGCAG,16600 fluorescence intensity (a.u.)
19,TTGTTAGATTAGGGTTTCGAGTCTTTCGACGTCCTGCTTGCGGAGTCACCTAGTGCAG,4560 fluorescence intensity (a.u.)
20,AAAATCATTGACAAAGCTTAATGTAAATCGAAACAATCGTCGGAGTCACCTAGTGCAG,15700 fluorescence intensity (a.u.)
21,TTGGAATTAGATGATGAATGAATGAATGAATGAATGCTCACGGAGTCACCTAGTGCAG,22300 fluorescence intensity (a.u.)
22,GGATGATTCAATCTTTGCTATTTGCCTTATCCACCTTAAACGGAGTCACCTAGTGCAG,3700 fluorescence intensity (a.u.)
23,TATAAATAAATTAAGTGGGCTAGCATGTCCACCGAAACAGCGGAGTCACCTAGTGCAG,12600 fluorescence intensity (a.u.)
